Experiment in all cases: glycan array binding signal (z-score within array); higher = stronger binding
Conditions in all cases: glycan notation: IUPAC condensed, linker removed

Assay [1] has as its target Gal(b1-4)GlcNAc(b1-3)Gal(b1-4)GlcNAc(b1-2)[Gal(b1-4)GlcNAc(b1-3)Gal(b1-4)GlcNAc(b1-6)]Man(a1-6)[Gal(b1-4)GlcNAc(b1-3)Gal(b1-4)GlcNAc(b1-2)Man(a1-3)]Man(b1-4)GlcNAc(b1-4)GlcNAc. The gist of the method: (§1)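 From the Consortium for Functional Glycomics database, 3228 arrays were curated, keeping only those whose protein sequence was available. Binding is given as a within-array Z-score averaged across arrays sharing a protein sequence and across linkers. Negative Z-scores can be read as non-binding.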

Assay [2] addresses Gal(b1-4)GlcNAc(b1-3)Gal(b1-4)GlcNAc(b1-2)[Gal(b1-4)GlcNAc(b1-3)Gal(b1-4)GlcNAc(b1-6)]Man(a1-6)[Gal(b1-4)GlcNAc(b1-3)Gal(b1-4)GlcNAc(b1-2)Man(a1-3)]Man(b1-4)GlcNAc(b1-4)[Fuc(a1-6)]GlcNAc. The gist of the method:
as §1

Assay [3] has as its target Gal(b1-4)GlcNAc(b1-3)Gal(b1-4)GlcNAc(b1-3)Gal(b1-4)GlcNAc. In outline:
as §1

The target of assay [4] is Gal(b1-4)GlcNAc(b1-3)Gal(b1-4)GlcNAc(b1-3)Gal(b1-4)GlcNAc(b1-2)Man(a1-3)[Gal(b1-4)GlcNAc(b1-3)Gal(b1-4)GlcNAc(b1-3)Gal(b1-4)GlcNAc(b1-2)Man(a1-6)]Man(b1-4)GlcNAc(b1-4)GlcNAc. In outline: as §1
In assay [5] the target is Gal(b1-4)GlcNAc(b1-3)Gal(b1-4)GlcNAc(b1-3)Gal(b1-4)GlcNAc(b1-2)Man(a1-3)[Gal(b1-4)GlcNAc(b1-3)Gal(b1-4)GlcNAc(b1-3)Gal(b1-4)GlcNAc(b1-2)Man(a1-6)]Man(b1-4)GlcNAc(b1-4)[Fuc(a1-6)]GlcNAc. In outline:
as §1

Assay [6] concerns the target Gal(b1-4)GlcNAc(b1-3)Gal(b1-4)GlcNAc(b1-3)Gal(b1-4)GlcNAc(b1-2)[Gal(b1-4)GlcNAc(b1-3)Gal(b1-4)GlcNAc(b1-3)Gal(b1-4)GlcNAc(b1-6)]Man(a1-6)[Gal(b1-4)GlcNAc(b1-3)Gal(b1-4)GlcNAc(b1-3)Gal(b1-4)GlcNAc(b1-2)Man(a1-3)]Man(b1-4)GlcNAc(b1-4)[Fuc(a1-6)]GlcNAc. In outline:
as §1

The target of assay [7] is Gal(b1-4)GlcNAc(b1-3)Gal(b1-4)GlcNAc(b1-3)Gal(b1-4)GlcNAc(b1-3)Gal(b1-4)GlcNAc(b1-2)Man(a1-3)[Gal(b1-4)GlcNAc(b1-3)Gal(b1-4)GlcNAc(b1-3)Gal(b1-4)GlcNAc(b1-3)Gal(b1-4)GlcNAc(b1-2)Man(a1-6)]Man(b1-4)GlcNAc(b1-4)GlcNAc. In outline: as §1
The target of assay [8] is Gal(b1-4)GlcNAc(b1-3)Gal(b1-4)GlcNAc(b1-3)Gal(b1-4)GlcNAc(b1-3)Gal(b1-4)GlcNAc(b1-2)Man(a1-3)[Gal(b1-4)GlcNAc(b1-3)Gal(b1-4)GlcNAc(b1-3)Gal(b1-4)GlcNAc(b1-3)Gal(b1-4)GlcNAc(b1-2)Man(a1-6)]Man(b1-4)GlcNAc(b1-4)[Fuc(a1-6)]GlcNAc. The gist of the method: as §1
For assay [9], the target named is Gal(b1-4)GlcNAc(b1-3)Gal(b1-4)GlcNAc(b1-3)Gal(b1-4)GlcNAc(b1-3)Gal(b1-4)GlcNAc(b1-2)[Gal(b1-4)GlcNAc(b1-3)Gal(b1-4)GlcNAc(b1-3)Gal(b1-4)GlcNAc(b1-3)Gal(b1-4)GlcNAc(b1-6)]Man(a1-6)[Gal(b1-4)GlcNAc(b1-3)Gal(b1-4)GlcNAc(b1-3)Gal(b1-4)GlcNAc(b1-3)Gal(b1-4)GlcNAc(b1-2)Man(a1-3)]Man(b1-4)GlcNAc(b1-4)[Fuc(a1-6)]GlcNAc. The gist of the method: as §1
In assay [10] the target is Gal(b1-4)GlcNAc(b1-3)Gal(b1-4)GlcNAc(b1-3)Gal(b1-4)GlcNAc(b1-3)Gal(b1-4)GlcNAc(b1-3)Gal(b1-4)GlcNAc(b1-2)Man(a1-3)[Gal(b1-4)GlcNAc(b1-3)Gal(b1-4)GlcNAc(b1-3)Gal(b1-4)GlcNAc(b1-3)Gal(b1-4)GlcNAc(b1-3)Gal(b1-4)GlcNAc(b1-2)Man(a1-6)]Man(b1-4)GlcNAc(b1-4)GlcNAc. In outline: as §1
For assay [11], the target named is Gal(b1-4)GlcNAc(b1-3)Gal(b1-4)GlcNAc(b1-3)Gal(b1-4)GlcNAc(b1-3)Gal(b1-4)GlcNAc(b1-3)Gal(b1-4)GlcNAc(b1-2)Man(a1-3)[Gal(b1-4)GlcNAc(b1-3)Gal(b1-4)GlcNAc(b1-3)Gal(b1-4)GlcNAc(b1-3)Gal(b1-4)GlcNAc(b1-3)Gal(b1-4)GlcNAc(b1-2)Man(a1-6)]Man(b1-4)GlcNAc(b1-4)[Fuc(a1-6)]GlcNAc. In outline:
as §1

Assay [12] concerns the target Gal(b1-4)GlcNAc(b1-3)Gal(b1-4)GlcNAc(b1-3)Gal(b1-4)GlcNAc(b1-3)Gal(b1-4)GlcNAc(b1-3)Gal(b1-4)GlcNAc(b1-2)[Gal(b1-4)GlcNAc(b1-3)Gal(b1-4)GlcNAc(b1-3)Gal(b1-4)GlcNAc(b1-3)Gal(b1-4)GlcNAc(b1-3)Gal(b1-4)GlcNAc(b1-6)]Man(a1-6)[Gal(b1-4)GlcNAc(b1-3)Gal(b1-4)GlcNAc(b1-3)Gal(b1-4)GlcNAc(b1-3)Gal(b1-4)GlcNAc(b1-3)Gal(b1-4)GlcNAc(b1-2)Man(a1-3)]Man(b1-4)GlcNAc(b1-4)[Fuc(a1-6)]GlcNAc. The gist of the method:
as §1

Assay [13] addresses Gal(b1-4)GlcNAc(b1-3)Gal(b1-4)GlcNAc(b1-3)Gal(b1-4)GlcNAc(b1-3)Gal(b1-4)GlcNAc(b1-3)Gal(b1-4)GlcNAc(b1-3)Gal(b1-4)GlcNAc(b1-2)Man(a1-3)[Gal(b1-4)GlcNAc(b1-3)Gal(b1-4)GlcNAc(b1-3)Gal(b1-4)GlcNAc(b1-3)Gal(b1-4)GlcNAc(b1-3)Gal(b1-4)GlcNAc(b1-3)Gal(b1-4)GlcNAc(b1-2)Man(a1-6)]Man(b1-4)GlcNAc(b1-4)GlcNAc. In outline: as §1
In assay [14] the target is Gal(b1-4)GlcNAc(b1-3)Gal(b1-4)GlcNAc(b1-3)GalNAc. The gist of the method:
as §1

For assay [15], the target named is Gal(b1-4)GlcNAc(b1-3)Gal(b1-4)GlcNAc(b1-3)[Gal(b1-4)GlcNAc(b1-3)Gal(b1-4)GlcNAc(b1-6)]GalNAc. In outline: as §1
In assay [16] the target is Gal(b1-4)GlcNAc(b1-3)Gal(b1-4)GlcNAc(b1-6)[Gal(b1-3)]GalNAc. The gist of the method:
as §1

Assay [17] concerns the target Gal(b1-4)GlcNAc(b1-3)Gal(b1-4)[Fuc(a1-3)]GlcNAc(b1-3)Gal(b1-4)[Fuc(a1-3)]GlcNAc. In outline: as §1
The target of assay [18] is Gal(b1-4)GlcNAc(b1-3)GalNAc. The gist of the method:
as §1

In assay [19] the target is Gal(b1-4)GlcNAc(b1-3)[Fuc(a1-3)GlcNAc(b1-6)]Gal(b1-4)Glc. In outline: as §1
Assay [20] has as its target Gal(b1-4)GlcNAc(b1-3)[Gal(b1-4)GlcNAc(b1-6)]Gal(b1-4)GlcNAc. The gist of the method: as §1
In assay [21] the target is Gal(b1-4)GlcNAc(b1-3)[GlcNAc(b1-6)]Gal(b1-4)GlcNAc. In outline: as §1
The target in assay [22] is Gal(b1-4)GlcNAc(b1-6)Gal(b1-4)GlcNAc. In outline:
as §1

This is one part of the list.

B1: rEtpA (Escherichia coli) (protein)
chain: MNRIYKLKFDKRRNELVVVSEITTGVGNAKATGSVEGEKSPRRGVRAMALSLLSGMMIMAHPAMSANLPTGGQIVAGSGSIQTPSGNQMNIHQNSQNMVANWNSFDIGKGNTVQFDQPSSSAVALNRVVGGGESQIMGNLKANGQVFLVNPNGVLFGEGASVSTSGFVASTRDIKNDDFMNRRYTFSGGQKAGAAIVNQGELTTNAGGYIVLAADRVSNSGTIRTPGGKTVLAASERITLQLDNGGLMSVQVTGDVVNALVENRGLVSARDGQVYLTALGRGMLMNTVLNVSGVVEASGMHRQDGNIVLDGGDSGVVHLSGTLQADNASGQGGKVVVQGKNILLDKGSNITATGGQGGGEVYVGGGWQGKDSNIRNADKVVMQGGARIDVSATQQGNGGTAVLWSDSYTNFHGQISAKGGETGGNGGRVETSSHGNLQAFGTVSASAKKGKAGNWLLDSADITIVNGSNVSKTETTQSPPHTQFAPTAAGSAVSNTSINNRLNNGTSVTILTHRTRTGTAQGGNITVNAAINKSNGSDVNLTLQAGGNITVNNSITSTEGKLNVNLSGARTSNGSITISNNANITTNGGDITVGTTNTSNRVNISINNTTLNASNGNIQLTGTGTDSGILFAGNNRLTASNIALTGNSTSGNAINLTGTATLNATNNITLTGSSTSGNAINLKGNNTLTASNITLTGESTSGNAINLTDTTGTTTLNATNNITMQGTRVQIKHSNITAGNFALNATVAGSEISNTTLTATNNINLAAKTNSASSGVYLKDARITSTNGSITANGTATANGKATHLDGNVTLNASNGRIKLTGNGHGSASGILFAGNNRLTASNIALTGNSTSGNAINLTGTATLNATNDITLTGSSTSGNAINLTGTATLNATNNITLTGSSTSGNAINLKGNNTLTASNITLTGESTSGNAINLTDTTGTTTLNATNNITMQGTRVQIKHSNITAGNFALNATVAGSEISNTTLTATNNINLAAKTNSASSGVYLKDARITSTNGSITANGTATANGKATHLDGNVTLNASNGRIKLTGNGHGSASGILFAGNNRLTASNIALTGNSTSGNAINLTGTATLNATNDITLTGSSTSGNAINLTGTATLNATNNITLTGSSTSGNAINLKGNNTLTASNITLTGESTSGNAINLTDTTGTTTLNATNNITMQGTRVQIKHSNITAGNFALNATVAGSEISNTTLTATNNINLAAKTNSASSGVYLKDARITSTNGSITANGTATANGKATHLDGNVTLNASNGRIKLTGNGHGSASGILFAGNNRLTASNIALTGNSTSGNAINLTGTATLNATNDITLTGSSTSGNAINLTGTATLNATNNITLTGSSTSGNAINLKGNNTLTASNITLTGESTSGNAINLTDTTGTTTLNATNNITMQGTRVQIKHSNITAGNFALNATVAGSEISNTTLTATNNINLAAKTNSASSGVYLKDARITSTNGSITTNGTATANGKATHLDGNVTLNASNGRIKLTGNGHGSASGILFAGNNRLTASNIALTGNSTSGNAINLTGTATLNATNDITLTGSSTSGNAINLTGTATLNATNNITLTGSSTSGNAINLKGNNTLTASNITLTGESTSGNAINLTDTTGTTTLNATNNITMQGTRVQIKHSNITAGNFALNATVAGSEISNTTLTATNNINLAAKTNSASSGVYLKDARITSTNGSITANGTAPANDNATYLDGNVTLNASNGSIKLTGNGNGSTSGILFAGNNTLTASNITLTGNSEVYWQKLGPEQKLISEEDLNSAVDHHHHHH
With B1, the “glycan array binding signal (z-score)” value in assay [1] was -0.106; in [2], -0.356; in assay [3], -0.413; in assay [4], -0.319; in assay [5], -0.38; in assay [6], -0.362. For the same molecule, the “glycan array binding signal (z-score)” value in assay [7] is -0.435; in assay [8], -0.319; in assay [9], -0.355; in assay [10] it was -0.398; in assay [11], -0.42; in assay [12] it was -0.351. For the same molecule, the “glycan array binding signal (z-score)” value was -0.221 in [13]; 0.548 in assay [14]; -0.249 in assay [15]; -0.384 in [16]; -0.365 in assay [17]; -0.234 in assay [18]. In addition, the “glycan array binding signal (z-score)” value was -0.328 in assay [19], -0.282 in assay [20], -0.382 in assay [21] and -0.317 in [22].
